{
  "source": "patent US20240301071A1",
  "biological_target": "human SIRPA on human macrophages (primary monocyte-derived macrophages; U937 line) (human) (UniProt P78324)",
  "sequence (P78324 31-504)": "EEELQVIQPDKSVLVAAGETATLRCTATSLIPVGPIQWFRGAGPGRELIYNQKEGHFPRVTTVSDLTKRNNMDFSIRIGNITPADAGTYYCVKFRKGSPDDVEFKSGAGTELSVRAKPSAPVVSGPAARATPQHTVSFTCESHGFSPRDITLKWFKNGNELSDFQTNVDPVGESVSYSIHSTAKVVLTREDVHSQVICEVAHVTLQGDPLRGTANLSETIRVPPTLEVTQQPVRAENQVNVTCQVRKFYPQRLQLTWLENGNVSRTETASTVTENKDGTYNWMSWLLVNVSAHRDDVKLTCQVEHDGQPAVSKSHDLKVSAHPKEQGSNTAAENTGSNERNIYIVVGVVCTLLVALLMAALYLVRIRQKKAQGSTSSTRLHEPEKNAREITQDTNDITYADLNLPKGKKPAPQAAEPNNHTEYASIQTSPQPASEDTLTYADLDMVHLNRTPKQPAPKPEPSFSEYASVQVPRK",
  "assay": "cell-based or functional assay",
  "data": [
    {"binder": "anti-SIRPA antibody KWAR23 (antibody, from another filing) light: QIVLTQSPAIMSASPGEKVTLTCSASSSVSSSYLYWYQQKPGSSPKLWIYSTSNLASGVPARFSGSGSGTSYSLTISSMEAEDAASYFCHQWSSYPRTFGAGTKLELKRTVAAPSVFIFPPSDEQLKSGTASVVCLLNNFYPREAKVQWKVDNALQSGNSQESVTEQDSKDSTYSLSSTLTLSKADYEKHKVYACEVTHQGLSSPVTKSFNRGEC heavy: EVQLQQSGAELVKPGASVKLSCTASGFNIKDYYIHWVQQRTEQGLEWIGRIDPEDGETKYAPKFQDKATITADTSSNTAYLHLSSLTSEDTAVYYCARWGAYWGQGTLVTVSS[human IgG1 constant region left out]", "values": [
      {"measurement": "EC50 (nM), phagocytosis of A375 cells by primary human macrophages", "result": 0.363, "unit": "nM"},
      {"measurement": "Max, fold increase in phagocytosis over baseline activity", "result": 1.13, "unit": "fold"},
      {"measurement": "SIRPA IC50 (nM), downregulation on U937 cells", "result": 15.5, "unit": "nM"},
      {"measurement": "SIRPA Max % DR, U937 cells", "result": 9, "unit": "%"}
    ]}
  ]
}
